Reference: PubChem BioAssay AID2100 (National Center for Advancing Translational Sciences (NCATS), 2009)
The whole screen tested about 300,000 compounds, of which about 1,200 (0.4%) were called active. This list was built around the results that the source calls inconclusive (neither active nor inactive); the mix of calls is not that of the screen. The call rests on the fitted dose curve; in most records, active means well fitted inhibition curve with a large enough effect; inconclusive means small, poorly fitted or top-dose-only effect, or another doubt; inactive means no such curve, though single readings can be large or run the other way. Potencies of inconclusive entries are doubtful fits and often do not repeat.

The compounds below were run against Lysosomal alpha-glucosidase (Homo sapiens) (UniProt P10253) (assay: qHTS Assay for Inhibitors and Activators of Human alpha-Glucosidase Cleavage of Glycogen). Conditions: recombinant GAA, glycogen substrate, Amplex Red glucose oxidase fluorescence; activity change, negative = inhibition: at 76.4 µM (top of the series) unless noted.
Outline: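 Natural-substrate format: glycogen cleavage by 4 nM human enzyme, glucose read by Amplex Red coupling (Ex 573, Em 610 nm). Normalized to enzyme and no-enzyme controls.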
Potency means the concentration at half of the fitted maximal effect.
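Wherever activity change, negative = inhibition is given: 0% = full enzyme reaction and -100% = no-enzyme basal signal.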

SMILES | Potency | activity change, negative = inhibition
CSCCCNC(=S)Nc1ccc(N2CCOCC2)cc1 | inconclusive: 14 µM [inhibitor, partial curve] | 
CCc1nn(-c2ccccc2)c2c1-c1cc(OC)c(OC)cc1C1(N2)C(=O)Nc2ccccc21 (stereo unspecified) | inconclusive: 28 µM [inhibitor, single point] | 
COc1cc(C2C3=C(Nc4nc(N)[nH]c(=O)c42)c2ccccc2C3=O)ccc1O (stereo unspecified) | inconclusive: 31.6 µM [inhibitor, partial curve] | 
O=C(Nc1cc(S(=O)(=O)N2CCOCC2)ccc1N1CCCC1)c1cc(=O)[nH]c2ccccc12 | inconclusive: 22.4 µM [inhibitor, partial curve] | 
O=C(NNS(=O)(=O)c1ccc(C(=O)NC2CCCC2)cc1)c1ccncc1 | inconclusive: 50.1 µM [inhibitor, single point] | 
Cc1cc(C)cc(N(CC(=O)NC2CCCC2)S(=O)(=O)c2c(C)[nH]c(=O)[nH]c2=O)c1 | inactive | 
O=C(O)c1cccc(NC2=C(Cl)C(=O)c3ccccc3C2=O)c1 | inactive | 
Fc1ccc(-c2csc(=S)[nH]2)cc1 | inconclusive: 44.7 µM [inhibitor, single point] | 
Nc1ccc(N2CCCCC2)cc1N1CCCCC1 | inconclusive: 31.6 µM [inhibitor, partial curve] | 
O=C(Nc1ccccc1N1CCCC1)c1ccc2ccccc2c1 | inconclusive: 35.5 µM [inhibitor, single point] | 
O=C(N/N=C1/CCSC1)c1cc(Br)ccc1O | inconclusive: 14.1 µM [inhibitor, partial curve] | 
COc1ccc(NC(=O)c2sc(=S)[nH]c2N)cc1 | inconclusive: 31.6 µM [inhibitor, single point] | 
COc1ccc(S(=O)(=O)Nc2cc3c(C(=O)OC(C)C)c(C)oc3c3ccccc23)cc1 | inactive | 
CC(C)C[C@H](NC(=O)c1nc[nH]c1C(=O)NCC(=O)OC(C)(C)C)C(=O)OC(C)(C)C | inconclusive: 39.5 µM [inhibitor, single point] | 
COc1ccc2c3c(cccc13)N(C)N=C2C | inconclusive: 19.8 µM [inhibitor, single point] | 
Cc1ccc2nc(-c3ccncc3)c(Nc3ccccc3)n2c1 | inconclusive: 14.1 µM [inhibitor, partial curve] | 
Nc1cccc2cnccc12 | inactive | 
O=C(OCC(=O)N1CCCCC1)c1cc2ccccc2cc1O | inactive | 
COc1ccc(NS(=O)(=O)c2cc(NC(=O)c3cccnc3Cl)ccc2N2CCCC2)cc1 | inconclusive: 7.94 µM [inhibitor, partial curve] | 
Cc1occc1C(=O)NNC(=S)NCc1ccc(Cl)cc1 | inconclusive: 25.1 µM [inhibitor, partial curve] | 
N#Cc1c(N)sc2c1CCN(CCc1ccccc1)C2 | inconclusive: 50.1 µM [activator, single point] | 
CC(C)(C)c1cc(CN2CCN(CCO)CC2)cc(C(C)(C)C)c1O | inconclusive: 39.8 µM [inhibitor, partial curve] | 
COc1ccc(-c2nnc(SCC(=O)N(C)C3CCCCC3)o2)cc1OC | inconclusive: 7.08 µM [inhibitor, partial curve] | 
CCc1cccc(C)c1NC(=S)NCCc1c(C)[nH]c2ccc(C)cc12 | inconclusive: 39.8 µM [inhibitor, single point] | 

SMILES | Potency | activity change, negative = inhibition
O=C(Nc1cc(N2CCOCC2)ncn1)NC1(C(F)(F)F)Oc2ccc(Cl)cc2O1 (stereo unspecified) | active: 11.1 µM | 
CCOC(=O)CNc1ccc2c(c1)OCO2 | inconclusive: 28 µM [inhibitor, single point] | 
COc1ccc(/C=C/C(=O)c2ccccc2O)cc1 | inactive | 
Cn1c(-c2ccc(Br)cc2)cnc1NCc1cccnc1 | inconclusive: 31.6 µM [inhibitor, partial curve] | 
Fc1ccc(/C=N/Nc2nc3ccccc3[nH]2)cc1F | inconclusive: 35.2 µM [inhibitor, single point] | 
Cc1ccc(-c2[nH]c3cc(C(N)=O)ccc3c(=O)c2O)cc1 | inconclusive: 28.2 µM [inhibitor, partial curve] | 
CCOC(=O)c1ccc(NC(=O)CC2Nc3ccccc3NC2=O)cc1 (stereo unspecified) | inconclusive: 22.4 µM [inhibitor, partial curve] | 
Cc1ccc(S(=O)(=O)NNc2nc3ccccc3nc2C(F)(F)F)cc1 | active: 28.2 µM | 
CCn1c2ccccc2c2cc(NC(=S)N3CCOCC3)ccc21 | active: 12.5 µM | 
COCC(=O)Nc1cccc(-c2nc3cccnc3s2)c1 |  | inconclusive: 5.22% [activator] [at 76.3 µM]
CCOC(=O)c1c(NC(=O)COc2ccc(C)cc2C(C)(C)C)sc2c1CCC(C)C2 (stereo unspecified) | inactive | 
CC1CCCCC1NS(=O)(=O)c1ccc(S(=O)(=O)NCc2ccncc2)cc1 (stereo unspecified) | inconclusive: 49.7 µM [activator, partial curve, poor fit] | 
O=C(Cn1cc(SCc2ccccc2F)c2ccccc21)N1CCCCC1 | inactive | 
COc1c(OC)c(O)c2c(=O)cc(-c3c(O)cccc3O)oc2c1OC | inconclusive: 31.6 µM [inhibitor, single point] | 
CCOc1ccccc1NC(=O)Cn1nnc(C(=O)NCc2ccc(F)cc2)c1N | inconclusive: 35.5 µM [inhibitor, partial curve] | 
COCCN(C(=O)c1csnn1)C(C(=O)NC1CCCCC1)c1sccc1C (stereo unspecified) |  | inconclusive: 23.5% [activator]
CCC(=O)N1CCN(c2ccc(NC(=S)NC(=O)c3ccc(OC)c([N+](=O)[O-])c3)cc2)CC1 | inconclusive: 5.01 µM [inhibitor, full curve] | 
CCC(C)NC(=S)NNC(=O)c1ccc(C(C)(C)C)cc1 (stereo unspecified) | inconclusive: 22.4 µM [inhibitor, partial curve] | 
CCc1cccc(NC(=O)Nc2cccs2)c1 | active: 28.2 µM | 
Cc1noc(/C=C/N(C)C)c1S(=O)(=O)N1CCc2ccccc21 | inconclusive: 3.52 µM [inhibitor, partial curve] | 
C/C=C\C=C/C(=O)Nc1cccc(C2=NOC3(C2)C[C@@H](C(N)=O)N(C(=O)COc2ccc(Cl)cc2)C3)c1 (stereo partly specified) | inactive | 
CC1C(=O)NN=C1C(=O)N/N=C\C(Br)=C\c1ccccc1 (stereo unspecified) | active: 25.1 µM | 
C=CCOc1ccc(/C(O)=C2\C(=O)C(=O)N(CCCOC)C2c2ccc(O)c(OC)c2)cc1 (stereo unspecified) | inconclusive: 31.4 µM [inhibitor, single point] | 
CCc1ccc(C(=O)N2CCC(c3nc(-c4ccc(S(=O)(=O)N5CCCC5)cc4)no3)CC2)cc1 | inactive | 

SMILES | Potency | activity change, negative = inhibition
O=C(O)c1ccc(CNCc2ccccc2Cl)s1 | inactive | 
CCCSc1ncc(Cl)c(C(=O)Nc2c(C(=O)Nc3ccc(OC)cc3)oc3ccccc23)n1 | inactive | 
C/C(CC(=O)Nc1cc(Cl)ccc1Cl)=N\NC(=O)c1ccco1 | inconclusive: 3.14 µM [inhibitor, single point] | 
O=c1oc2ccccc2cc1-c1csc(NN=C2CCCC2)n1 | inconclusive: 25.1 µM [inhibitor, partial curve] | 
CC(=O)Nc1ccccc1NC(=O)C/C(C)=N/NC(=O)c1ccccn1 | inconclusive: 3.95 µM [inhibitor, full curve] | 
Cn1c(SCC(=O)NNC(=S)Nc2ccccc2)nnc1-c1ccncc1 | inconclusive: 39.8 µM [inhibitor, single point] | 
O=C(O)c1ccccc1NSc1ccccc1[N+](=O)[O-] | inconclusive: 35.5 µM [inhibitor, partial curve] | 
Cc1cc(N)c(NC2=CC(=O)CC(C)(C)C2)cc1C | inconclusive: 24.9 µM [inhibitor, single point] | 
Nc1ccccc1Nc1cc(-c2ccccc2)[nH]n1 | active: 7.94 µM | 
Oc1ccc(/C=N/n2cc(-c3ccccc3)[nH]c2=S)cc1 | inconclusive: 25.1 µM [inhibitor, partial curve] | 
COc1ccc(C2Nc3ccccc3C(=O)N2O)cc1OC (stereo unspecified) | inconclusive: 28.2 µM [inhibitor, partial curve] | 
CCc1nnc(NC(=O)CSc2nnc(Cc3ccc(OC)cc3)o2)s1 | inconclusive: 4.43 µM [inhibitor, single point] | 
S=C(NN=C1C2CC3CC(C2)CC1C3)Nc1ccccc1 | inconclusive: 22.4 µM [inhibitor, partial curve] | 
Oc1ccc(-c2csc(Nc3ccccn3)n2)cc1O | inconclusive: 28.2 µM [inhibitor, single point] | 
Cc1[nH]c2ccccc2c1C(=O)NS(=O)(=O)Nc1ccc(F)cc1 | inconclusive: 11.2 µM [inhibitor, single point] | 
COc1ccc(C(=O)C2CCCN(C3Cc4ccccc4C3)C2)cc1OC (stereo unspecified) | active: 15.8 µM | 
Cc1ccc(NNC(=O)C(O)(c2cccc(C(F)(F)F)c2)c2cccc(C(F)(F)F)c2)cc1 | inactive | 
COc1ccc(S(=O)(=O)N2CCN(C(=O)NCc3ccc(C)cc3)CC2)cc1 | inactive | 
Cc1cc(C)c2c(-n3cccc3)c(C(=O)NNS(=O)(=O)c3ccc(Cl)cc3)sc2n1 | active: 20 µM | 
Cc1ccc(Cn2c(C(C)NC(=O)c3ccccc3)nc3ccccc32)cc1 (stereo unspecified) | inconclusive: 11.2 µM [inhibitor, single point] | 
COc1ccc(NC(=O)c2cccs2)cc1O | inconclusive: 20 µM [inhibitor, partial curve] | 
O=C1CCc2cc(S(=O)(=O)NC(Cc3ccccc3)C(=O)NCC3CCCO3)ccc2N1 (stereo unspecified) | inactive | 
COc1ccc(S(=O)(=O)Nc2cc(S(=O)(=O)c3ccccc3)c(O)c(C)c2C)cc1 | inconclusive: 3.55 µM [inhibitor, full curve, poor fit] | 
